The full ranking holds about 33,000 sequences; the median of “E-score (-0.5 to 0.5)” is about -0.053, and the highest 2% start at about 0.37. The list shows a part of the results.

The assay concerns the target Hap1 (UniProt P0CE41). Kind of assay: PBM E-score (8-mer binding enrichment) (E-score (-0.5 to 0.5)); higher = stronger / more preferred TF binding; most listed sequences are background and not binding sites. The note with it: protein concentration: 200 nM; construct: GST-DNA-binding domain. In a few lines: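 Each ungapped eight-base word and its reverse complement, pooled, received an E-score from the Universal PBM Analysis Suite. Underlying scans, normalised with masliner, recorded fluorescent anti-GST bound to GST-tagged yeast transcription factors. These were applied at about 100-200 nM to universal all-10-mer Agilent arrays double-stranded by primer extension.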
Chain of UniProt P0CE41 (P0CE41 whole entry, the tested form may be a part): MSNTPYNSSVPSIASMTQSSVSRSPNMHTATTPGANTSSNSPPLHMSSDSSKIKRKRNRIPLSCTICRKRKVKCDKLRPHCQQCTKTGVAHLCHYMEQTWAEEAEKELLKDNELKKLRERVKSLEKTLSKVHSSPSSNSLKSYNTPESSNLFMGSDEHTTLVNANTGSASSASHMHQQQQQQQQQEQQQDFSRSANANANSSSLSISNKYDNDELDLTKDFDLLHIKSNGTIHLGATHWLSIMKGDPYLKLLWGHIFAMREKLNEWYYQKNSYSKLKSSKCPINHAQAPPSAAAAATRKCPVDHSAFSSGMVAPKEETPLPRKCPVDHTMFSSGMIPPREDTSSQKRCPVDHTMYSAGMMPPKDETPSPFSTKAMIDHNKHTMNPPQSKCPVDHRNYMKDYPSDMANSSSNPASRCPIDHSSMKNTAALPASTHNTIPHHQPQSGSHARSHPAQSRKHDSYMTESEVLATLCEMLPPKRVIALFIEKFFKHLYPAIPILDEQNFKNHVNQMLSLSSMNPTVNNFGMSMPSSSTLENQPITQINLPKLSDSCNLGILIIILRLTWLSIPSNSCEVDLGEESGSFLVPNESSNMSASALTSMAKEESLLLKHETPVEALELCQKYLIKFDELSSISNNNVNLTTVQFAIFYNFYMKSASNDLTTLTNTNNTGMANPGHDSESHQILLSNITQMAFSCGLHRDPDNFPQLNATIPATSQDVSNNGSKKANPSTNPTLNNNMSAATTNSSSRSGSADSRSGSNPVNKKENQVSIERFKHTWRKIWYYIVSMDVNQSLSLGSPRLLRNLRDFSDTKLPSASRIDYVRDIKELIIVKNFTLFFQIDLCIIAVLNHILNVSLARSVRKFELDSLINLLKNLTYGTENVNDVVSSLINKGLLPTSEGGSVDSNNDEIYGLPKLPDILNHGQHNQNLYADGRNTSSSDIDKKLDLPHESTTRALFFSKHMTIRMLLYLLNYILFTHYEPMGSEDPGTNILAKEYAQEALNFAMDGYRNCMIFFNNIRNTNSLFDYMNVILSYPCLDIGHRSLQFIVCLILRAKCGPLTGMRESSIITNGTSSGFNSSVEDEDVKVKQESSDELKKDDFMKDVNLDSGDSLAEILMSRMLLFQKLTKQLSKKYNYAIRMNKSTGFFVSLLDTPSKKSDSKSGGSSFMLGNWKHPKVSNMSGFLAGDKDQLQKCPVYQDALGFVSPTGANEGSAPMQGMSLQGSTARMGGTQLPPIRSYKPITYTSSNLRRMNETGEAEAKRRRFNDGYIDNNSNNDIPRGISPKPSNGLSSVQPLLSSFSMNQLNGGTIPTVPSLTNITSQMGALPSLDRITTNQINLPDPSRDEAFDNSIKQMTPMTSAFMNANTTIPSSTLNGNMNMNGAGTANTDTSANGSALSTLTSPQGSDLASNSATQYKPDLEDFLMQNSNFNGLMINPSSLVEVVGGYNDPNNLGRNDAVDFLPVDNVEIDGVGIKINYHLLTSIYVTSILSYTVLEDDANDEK
For CACCGATG, the “PBM E-score” value came to 0.196.
With CCCGATTA the figure was 0.197; with AGGACTGC, -0.365; with AGACTCAG, -0.176.
For the sequence CTGCACAG, the “PBM E-score” value was -0.161.
On to GGGAAGAC, for which the “PBM E-score” value was -0.0862.
Then TAGCTAAA, with -0.2.
For the sequence AGGGATGG, the “PBM E-score” value amounted to 0.00107.
As for AGTTTTGC, the “PBM E-score” value amounted to 0.00984.
For CGGACTAA, the “PBM E-score” value worked out at 0.411.
Turning to CACACCAG, the “PBM E-score” value was -0.292.
For AATCCCCA, the “PBM E-score” value is -0.116.
In the case of ACGACGCA, the “PBM E-score” value is -0.00728.
Turning to ACGGATCT, the “PBM E-score” value amounted to 0.268.
As to GTATTCGA, the “PBM E-score” value is -0.115.
Take GTGGGCGA: the “PBM E-score” value was -0.186.
On to CCGGAGAC, for which the “PBM E-score” value came to 0.373.
With ACTAGTAT the figure was -0.04; with CAGAGGAC, -0.275; with ATAGAACC, 0.0424.
With ACAGACCA, the “PBM E-score” value was -0.117.
Regarding GCGTTGTA, the “PBM E-score” value is -0.0982.
Then CCATGAAA, with -0.184; and CTAGCCAC, with -0.304.
Take AGCTACGC: the “PBM E-score” value is -0.0755.
With TAAAGAAA, the “PBM E-score” value was determined as 0.0601.
ACGTTAGG: the “PBM E-score” value was -0.082.
Then ACGAACGC, with 0.0808; and CGCGGATA, with 0.309; and GGTAGTCA, with -0.0479.
With ATCACCAG, the “PBM E-score” value is -0.00114.
With ACTGAAAA the figure was -0.0403; with CTTCTCTC, -0.0393; with CTTAGCTA, -0.158.
Then ACGCCTCG, with 0.061; and ACAAGGGT, with -0.161; and GGAACTCA, with 0.0924.
Then TCATGGAA, with -0.0437.
In the case of AGTAGCAC, the “PBM E-score” value was -0.165.
As to CTGACCGC, the “PBM E-score” value was 0.211.
Consider AAGGATAG, for which the “PBM E-score” value is -0.0396.
On to TCATAGGA, for which the “PBM E-score” value was -0.112.
As to ACATGGGT, the “PBM E-score” value was -0.141.
AAGTGGAG: the “PBM E-score” value was -0.18.
Consider CACGACGA, for which the “PBM E-score” value was -0.176.
ATCCGTTC: the “PBM E-score” value came to 0.233.
With AATACAAT the figure was -0.0698; with AACGGTGA, 0.185; with CAAAACGA, -0.16.
As for ATGAGATC, the “PBM E-score” value is -0.155.
With CAAATTAA the figure was -0.167; with GTCTCGTA, -0.0726.
Turning to GAGGATCC, the “PBM E-score” value was determined as 0.176.
With ACACATGC, the “PBM E-score” value was -0.0573.
ATCACCTA: the “PBM E-score” value was -0.327.
Then TAAACAGA, with -0.164; and CTCAAGCA, with -0.346.
Then AATCATGC, with -0.128.
With CATTCTGC, the “PBM E-score” value is 0.0417.
As to CCTCCAAG, the “PBM E-score” value is -0.326.
Take ACTCATCA: the “PBM E-score” value was -0.0308.
With ACCGTTAT the figure was 0.193; with AGGCACCA, -0.0901.
For AATCGATA, the “PBM E-score” value is 0.0253.
AGAGCCCG: the “PBM E-score” value is 0.125.
With GAACACCA, the “PBM E-score” value was -0.0651.
As for ATTAACAA, the “PBM E-score” value is -0.0497.
For GAATGACC, the “PBM E-score” value amounted to 0.221.
With ACGCCTAC, the “PBM E-score” value was -0.0649.
In the case of AATAGTTA, the “PBM E-score” value is -0.0887.
Consider CCTTCCGC, for which the “PBM E-score” value stood at 0.222.
With ACCCATCC, the “PBM E-score” value turned out to be 0.0641.
Turning to AGCACTTC, the “PBM E-score” value was -0.0434.
As to GAGCAATA, the “PBM E-score” value was -0.174.
Then AAGTGGGG, with -0.0398.
Consider CATTAGTA, for which the “PBM E-score” value came to 0.0201.
Then TCGATAGA, with -0.0827.
Consider CACATCTC, for which the “PBM E-score” value was found to be 0.0239.
Turning to TCGTTAAA, the “PBM E-score” value stood at 0.0807.
For TCATCAAA, the “PBM E-score” value was -0.079.
With CACCTGAG the figure was -0.3.
Take CGAATATC: the “PBM E-score” value came to 0.0376.
With AGGATAAG the figure was -0.0379.
For the sequence ACAGGAAT, the “PBM E-score” value is -0.135.
With GCGGCTAA, the “PBM E-score” value was 0.0795.
Turning to TGGGTGAA, the “PBM E-score” value was determined as 0.0419.
With GACCAGGA, the “PBM E-score” value was -0.0417.
Regarding CGATCGAC, the “PBM E-score” value was determined as 0.124.
As for ATTCAATA, the “PBM E-score” value is -0.0774.
Consider TTCATCAA, for which the “PBM E-score” value is 0.0253.
For TATTCTAA, the “PBM E-score” value is -0.123.
For the sequence TAGCATGA, the “PBM E-score” value was -0.153.
Take TTCGTCAA: the “PBM E-score” value was -0.123.
Consider AAGAACGT, for which the “PBM E-score” value was -0.194.

Source of the values: the supplement of paper PMC3334620.
